Measured values from the supplement of paper PMC3334620.
Whole data set: some 33,000 sequences, median “E-score (-0.5 to 0.5)” near -0.01, cut for the highest 2% near 0.26. The list shows a part of the results.

Molecular target: Ste12 (UniProt P13574)
Assay: PBM E-score (8-mer binding enrichment) (E-score (-0.5 to 0.5)); higher = stronger / more preferred TF binding; most listed sequences are background and not binding sites
Settings: protein concentration: 200 nM; construct: GST-DNA-binding domain
In short: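 Full-length yeast transcription factors or their DNA-binding domains, GST-tagged and expressed with PURExpress, were applied at about 100-200 nM to universal all-10-mer Agilent arrays. These arrays had been made double-stranded by primer extension on fresh or once-stripped slides. Detection used fluorescent anti-GST, normalisation used masliner, and E-scores for ungapped eight-base words pooled with reverse complements came from the Universal PBM Analysis Suite.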

Sequence | PBM E-score
CGAGGCGA | 0.00544
AATACACG | -0.174
AGGCGGAC | -0.0535
CGACATGC | -0.091
AGTTACGA | -0.0238
AACTTTAG | 0.0874
CACCGGCA | 0.0444
CTGCGTCA | -0.12
AGTTCGTC | -0.0529
ATTGCCTA | -0.2
CGCGTCCC | -0.0346
ATGTATAG | 0.0331
AGACTGAC | -0.139
CTTGCCTA | -0.125
ACTGGGCT | 0.00192
AGTAATTG | 0.0886
GTTAAGGA | 0.0282
GCACGCGC | 0.0115
ACGAGATC | -0.236
ACGCTCCG | 0.0584
GATCTTAA | 0.0856
AGGCTTCG | -0.158
AGCACTCA | 0.00842
GACATTTA | -0.0124
CATCATCA | -0.0201

Sequence | PBM E-score
AAGGGCGG | 0.101
CGTACACG | -0.148
ACCGTAGA | -0.132
AACCACCG | -0.0733
ACGCGGAA | 0.0969
CTATCGAA | 0.153
GTACTTCA | 0.103
CAGCTGCG | -0.0692
CATGCAAA | -0.0225
CATCTCAG | -0.032
ACGACACC | -0.0371
CATAACAC | 0.0915
CACCATAG | -0.041
CCAACCTA | -0.0315
AGATGCGG | 0.0976
GGCCAAAA | 0.0718
GACTTGGA | -0.0904
ATTGTCCC | 0.0652
GATAACCC | -0.0707
CGACGAAA | 0.0412
CGGTCTGC | -0.153
AATTCCAT | 0.095
CAAATGGC | -0.0975
ACGATGAA | 0.274
ACCCGGTG | -0.0523

Sequence | PBM E-score
CCGGTATC | -0.143
AACGCAGG | 0.0477
CGTTGGAC | -0.203
AAAGAAGA | 0.104
ACGGTGGC | -0.0529
AGCAAGTA | 0.00728
ACCTGATG | 0.0596
ATAGTATC | 0.0741
AATGGACC | 0.0187
ACAACCCG | 0.059
GGCCGCTA | -0.127
AAAACGCA | 0.163
ACATTTGC | 0.0597
ACAGAATG | 0.0528
AAAGCCAG | -0.0237
AATTCGGG | -0.00907
CTGAGGAA | -0.0186
CTGCTATC | 0.0704
GGTCTTGA | -0.0759
AGGGTTAA | 0.0498
CATCCTAA | -0.104
ACACTACT | 0.0391
CGAATCCC | 0.0378
AAATTCAA | 0.153
TGACTTAA | -0.0893

Sequence | PBM E-score
ACACAAGC | 0.0819
CTAGGCCA | -0.187
TCTTGAAA | 0.308
CTTTGTAC | -0.0561
ATACCCAT | 0.0168
AACACGTG | 0.12
ACTGCCAG | -0.0624
GGTCTTAA | -0.0409
CCGCATGA | 0.0154
CCCCGTCC | 0.0603
AAGCCGCG | 0.0912
CAGCCAGG | -0.179
ACGCCATA | -0.0497
CCTCTAGC | -0.177
CATGACAA | 0.0209
GAGAATAC | 0.0523
AAGGCGCA | -0.156
GTAAACGA | -0.0567
AACCGGCC | -0.208
GTGACTGA | -0.0477
GCGAGAAA | 0.107
TAACGTCA | 0.0318
CTGGGGCA | -0.234
AGAACCCC | -0.027
AGAGAAAC | 0.088

Sequence | PBM E-score
CCAATGCA | -0.135
CTCGTATA | 0.0544
TGTATGAA | 0.228
AACTTCAT | 0.0947
GGGATTCA | 0.00978
CCTGTTCG | -0.082
CCGAAAGG | -0.00094
CACGACGG | -0.0211
CGATAGCC | -0.0372
AGGTGAAT | 0.0887
ACATCCAG | 0.0306
CCACCTCG | -0.0855
ACTGCCTA | -0.0876
AAAAGTAA | 0.287
GAGTAACC | -0.00741
GGAAGGTA | 0.0593
GAGGGGCA | 0.158
GAAAGATC | -0.0296
GGGGGGAA | -0.089
CTGTATGC | -0.0803
CAATAGGC | -0.0427
CAATGAGG | -0.306
AGTGCTAT | -0.144
GCAGCGAC | 0.0544
GGTTGCCA | 0.0827

Sequence | PBM E-score
GGACGGAA | -0.121
AGCCCCCG | -0.128
ACAAGATA | 0.0153
CGCCAACG | 0.0757
ACTGCGAA | -0.193
AGGGTAGA | -0.076
GGTACGGA | -0.126
CATGTCGC | -0.0286
AGCTAGGC | -0.189
ACGTCCCA | -0.0997
CCAGTAAG | 0.00325
GCGCAGCA | -0.227
GCTCCTAC | -0.199
ATGACTAC | -0.232
CTAAGCGA | -0.0793
CTGGTAAA | 0.0096
ATTGAACG | -0.0599
ATCGTTGC | -0.153
CAGCCTAG | 0.0593
AAGCAAAT | 0.0456
AGGACCAG | -0.236
ATCACGAG | 0.0437
AGCGTAAG | -0.158
ACGCTTTG | 0.00226
GCTATCCC | -0.0374

Sequence | PBM E-score
ACTCTGAT | 0.146
GGCACAGA | -0.098
AGCCGCCT | -0.164
CGCGGACG | -0.12
CCCTTCTA | -0.26
ACTGGCGC | 0.106
AAGCGAAA | 0.206
AACGAAGT | -0.104
GACGGCGA | -0.0919
ACATTCCG | -0.0362
AGTCTATA | -0.108
AATTAAAG | 0.103
AACACATG | 0.128
CTCAGCAA | -0.0278
CAGGGCTA | -0.0534
ATGATGAC | 0.031
AATCAAAG | 0.141
ACCGTGGC | -0.0352
GCGTTTAA | 0.103
CCGCCTTC | 0.0767
AAGTGCGA | -0.106
CCCGAAGG | -0.0324
CGCTTCTA | -0.104
TGCTAGCA | -0.159
GCACACTA | 0.0103

Sequence | PBM E-score
AGTTAAAG | 0.0651
CCACTGTC | -0.284
CCTTCCTA | -0.114
ACCATCTG | 0.0494
AGAACGCG | 0.113
CCAGGAAA | -0.0329
CGCGCGAA | 0.0853
GGTCTTAC | -0.0717
ACTTGGCC | -0.0942
AGCTCAGA | -0.04
CAGGTTCC | -0.0376
CTTGTGAC | 0.0782
CCATACCA | -0.0771
ATGGACCG | -0.00313
CATGGTTC | 0.19
ATTGAGGC | 0.0477
AATATGGA | 0.123
ATACAGCC | -0.147
CACCCCGC | 0.195
ACGCACCT | -0.112
AGTGTGTG | -0.123
GAGGAACC | -0.181
CATCAATC | 0.122
CCGCTTGC | 0.0426
CGCCTTCA | -0.166

Sequence | PBM E-score
AACTGGAA | 0.0921
ATTACATA | -0.0261
AGATTACT | 0.0149
CTAAACTC | -0.0817
TCATTACA | 0.18
CAGTGCGG | -0.112
CTTTCTAC | 0.0634
CGGGCAGA | 0.0708
CACTCAAA | 0.0429
GAACAACA | -0.00794
AGAAGACG | 0.102
AAAGACGG | -0.0892
AACGTGTA | -0.0898
GGGCAATA | 0.0526
ATATCAGC | 0.0327
CGACTTTA | 0.0771
TGAATGAA | 0.208
AGATACCT | -0.124
CTAGAAAG | 0.0535
GCGGTGTA | 0.0847
TATCAGCA | 0.0983
CAAGATGA | -0.0642
ACCCAAGG | -0.00448
TAACGGGA | -0.0427
ATCGACTA | -0.0298

Sequence | PBM E-score
CAAGTTCG | -0.0514
ACGGAACT | 0.0365
AGAGATCA | -0.155
CTGTAATC | -0.0952
ATCGAAAT | 0.0976
AGACCAGC | -0.267
ACTCCGTA | -0.107
CGGACGAC | 0.0253
CAAGATAA | 0.151
ATATGTAA | -0.0122
ATAATGGG | 0.145
AGCGCGAT | 0.114
GCAGTCCA | -0.113
ATTGTGGG | 0.0634
ACGGTTCC | -0.0175
CTTATCGC | 0.0827
TGGCACCA | -0.119
GACCGCAC | -0.159
ACCTAAAG | -0.015
GTCAAGAC | -0.0113
CCAAACCG | 0.0704
AGACGTTC | -0.219
ATGCGCCA | 0.0723
ATCTGGGC | -0.0628
ATTCTGCA | 0.182

Sequence | PBM E-score
GCTCCGAC | 0.0278
CCTCTTAA | 0.078
CATTGCTA | -0.0578
CCACTACA | -0.0472
AACTCTAC | -0.139
ACAAGTAG | 0.0562
AGGGAGAA | -0.185
CAACCAAA | 0.21
CCCAAAGG | -0.199
CTCACATC | 0.0669
AGATAAGC | 0.0355
CGTAAGTA | -0.0906
AGTAAGCC | 0.00504
ATTTCGCA | 0.162
AAGGTCTG | 0.0423
CCAATTCG | -0.0588
AGACAATG | -0.0392
AACCGCCG | 0.132
AACAGGAC | -0.144
TCCTTTCA | 0.00642
AGTAAAGC | -0.171
GAGCTACA | -0.169
CATATATA | 0.283
AGGGACCC | -0.259
CCTGAGAC | 0.101

Sequence | PBM E-score
ACGATCGG | 0.0543
CGCCGTTC | -0.0924
GGTCATCA | -0.322
ACTCACGC | 0.0283
CATCGTAA | 0.175
ACTCTATA | 0.114
AGGTGTCC | -0.176
AAGAAAGT | 0.0943
GACCCATA | 0.0501
GATAATGA | 0.0951
AACCGTTA | -0.0675
GTGCAATA | 0.0283
AAATGCGC | 0.136
CCTACTAC | -0.0516
CCAGGCCC | -0.165
ATTGCCCC | 0.0929
GCGTCAGA | -0.0135
GCCGATTA | 0.164
AACTACTA | 0.115
ACATCACA | 0.0764
AGACGCCT | -0.101
GATTACCA | -0.0745
CATTAGGG | -0.166
AAAGTAGT | 0.00407
ACGTAGTG | -0.249

Sequence | PBM E-score
CAGAGTGG | -0.239
AGAAACAG | 0.0492
ATCCCAAA | 0.178
TCAATCGA | 0.0344
ATCAAAAG | 0.0655
AGGCCAGG | -0.0224
AAGACGCC | -0.0126
CTAATATA | 0.0456
CTGACAAG | -0.0158
GGAACCCC | -0.172
CTGTCAAG | -0.2
GCTTTACC | 0.00976
CCTCAAAA | 0.198
CCTCGTAC | -0.0391
AACTTTTA | 0.228
ATGAGTAC | -0.0228
CCTAGGTC | -0.105
GGCCTACC | -0.134
TAACTGGA | -0.0107
GCCGTGCA | -0.12
ATGCTGAG | -0.11
CAACGCAG | -0.0949
GAATAACC | -0.144
AACCGACC | 0.121
ACACACGG | -0.0544

Sequence | PBM E-score
GCCTGAAA | 0.273
GCGCACCC | -0.0102
CACGTCTC | 0.0586
ATAAACCG | 0.0871
CTAATGCA | 0.00892
CGTCGGAG | 0.132
GGGCGCCC | 0.159
CATGCTAA | -0.195
GACGCTCC | -0.0783
ACCCTTTC | -0.018
ACAGACGC | -0.153
GAACGTGA | -0.0866
GCCTCGTA | -0.0779
CACCTGCA | -0.121
GTAGCCGA | -0.236
CGGGACCG | -0.0541
GAATCACC | -0.0599
GTATCGCA | -0.126
CCGCTGAC | -0.075
